From the supplement of paper PMC11417369
The other results are listed elsewhere or left out.

tested on: PfAP2-HC AP2 domain (GST-tagged); assay: gcPBM binding intensity (ln(normalized median fluorescence intensity)); higher = stronger DNA binding
Procedure, shortened: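 Probes on an Agilent 4 × 180k array were primer-extended, double-stranded and 36 bp long, taken from intergenic genomic regions, with negative controls added. GST-tagged P. falciparum DNA-binding domains from E. coli, about 25 μg on average, were applied to the array for 1 h in 1× PBS containing 1% milk, 0.2 mg/ml BSA, 0.5% salmon testes DNA and 0.03% Triton X-100. Binding intensity, obtained after Alexa488 anti-GST antibody detection and a 488 nm scan, is the highest Masliner-normalised natural-log median intensity across replicate spots of either probe orientation.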

Going from “TTTATAAGAATTACTAGTACATATAAGGAATTATAT [XGTACX_site3953]” to “CATTTTTTATAATAATGTACATGTATTAAAAAAAAA [XGTACX_site6390]”, the “gcPBM binding intensity (ln)” value falls from 9.53 to 9.31.

Compared with “TTATAAATTTAAAGTAGTACTATACTACTATTTTAT [XGTACX_site3038]”, “TATATATCAAAAATATGTACACAGAAATATATATTA [XGTACX_site6997]” is higher in “gcPBM binding intensity (ln)” value: 9.6 for the first, 9.71 for the second.

First: ACATATAAAATATATACACACATATAAATACATTAA [CACACA_site3867]
Second: TTGCAATAATGTTGCACACTAAATAGTCATATATAA [CACACA_site263]
The “gcPBM binding intensity (ln)” value of the first is higher: 9.97 for the first, 9.63 for the second.

First: ATATAATATTACAAATGTACTTTAAAAAATTAGGAG [XGTACX_site3897]
Second: TTGTTTCAAGAAAAAATCGAAAAACATAGAAAAAAA [XGTACX_negctrl_site615]
The “gcPBM binding intensity (ln)” value of the first is lower: 9.33 for the first, 9.47 for the second.

Going from “ATATTTTTGTTCAGGAGTACAGTTCAAGATGAAAAT [XGTACX_site4178]” to “ATAACATAATAGCAACAATTTATTTCCTCTATAACA [CACACA_negctrl_site243]”, the “gcPBM binding intensity (ln)” value falls from 9.66 to 9.63.

Going from “TTTTTTATATATGTGTGTGTGTGTGTGTCAAGTTTA [GTGCAC_negctrl_site460]” to TTTGGGATATTTACAGTGCAAAGATATTTTTATAAT, the “gcPBM binding intensity (ln)” value falls from 11.1 to 9.45.

Going from “TTTTAGTGAAATGAGTGTACATTATATATTTTTTTT [XGTACX_site4892]” to “ATTCTATATATATAAACACACAAATATTTTTATATA [CACACA_site1677]”, the “gcPBM binding intensity (ln)” value rises from 9.54 to 9.65.

Going from “AAGACTAATCTAGGTAGTACTTATATATCTTTATTT [XGTACX_site4572]” to “ATATAAGGAAGGGATGCACACAAAAGGGTACATAAG [CACACA_site9328]”, the “gcPBM binding intensity (ln)” value rises from 9.68 to 10.1.

Compared with “AAAAATATAAAGAAATGTACTTATAAAAATCCCTAC [XGTACX_site3824]”, “TACACCAGTTGTGGGAGTACACAAAAAAAGGGAAAA [XGTACX_site6047]” is higher in “gcPBM binding intensity (ln)” value: 9.68 for the first, 9.77 for the second.

Going from “TTCTGTTCAAAATATGAACACACACCGATATATATA [CACACA_site8637]” to “CTTTATCTTTTTCATTGTACTTTATTTTAAAATTAA [XGTACX_site4858]”, the “gcPBM binding intensity (ln)” value falls from 9.91 to 9.73.

Going from “TGCAGTCTGGAGAAAAGTACACAGTATCTGGTAGCT [XGTACX_site2013]” to “AATATCATAAAATAAAGTACAAATATATATTGAAAA [XGTACX_site8813]”, the “gcPBM binding intensity (ln)” value rises from 9.58 to 9.8.

Going from AATAGATTTTTATGCGTGCACACATTTAACAAAAAA to “GTGCTAGTATTTAATACACACAATTGAAGTTCCTGA [CACACA_site1452]”, the “gcPBM binding intensity (ln)” value falls from 9.77 to 9.63.

Compared with “TAACATCCTAATGTCACACATGTTATAGGTTTAAAT [CACACA_site5649]”, “TTCTGGTGTAAATGCACACAGAAGAAGAAAAAAAAA [CACACA_site3685]” is higher in “gcPBM binding intensity (ln)” value: 9.56 for the first, 9.73 for the second.

Compared with “TAATTTAATTTTCCAAGAAAAAAAAAAGAAAAAAGA [CACACA_negctrl_site1703]”, “TTTGAAATATTTATTTGTACATATACACACTTAAAT [XGTACX_site8321]” is higher in “gcPBM binding intensity (ln)” value: 9.43 for the first, 9.68 for the second.

First: ATATTATTTTGTCAGGGTACATTCCATAAGTTTTTT [XGTACX_site6855]
Second: TCCTTTCTTTTTTAAACATGCATATGTAATATAAAT [TGCATGCA_site979]
The “gcPBM binding intensity (ln)” value of the first is higher: 9.82 for the first, 9.52 for the second.

Compared with “CCTTCATCATATTTAACACACAGAGAAAAAGCGGAT [CACACA_site274]”, “AAAAAAAAAAAAAAAAAAACCACAAACAAATATGAA [TGCATGCA_negctrl_site34]” is lower in “gcPBM binding intensity (ln)” value: 9.68 for the first, 9.55 for the second.

First: CTCGTATATATAATACGTACATATTATATATATATA [XGTACX_site1704]
Second: TTTACATACAAATTAACACACATATAGAAAAGAGAA [CACACA_site1889]
The “gcPBM binding intensity (ln)” value of the first is lower: 9.59 for the first, 9.88 for the second.

Going from “AAAAAAAATAAACACACACACATACCCATAAATATA [CACACA_site5980]” to “TTTTAAAATATATTTGTATATATATATATATATATA [XGTACX_negctrl_site536]”, the “gcPBM binding intensity (ln)” value falls from 10.4 to 9.47.

First: ATAATATAATAATACACACTCATTATATATATAAAG [CACACA_site3956]
Second: GCTTGTTCAAAAATGAGTACATACAAATAGTTGTAT [XGTACX_site1770]
The “gcPBM binding intensity (ln)” value of the first is higher: 9.81 for the first, 9.63 for the second.

Going from “TATTTATGTAGATACACACCCATGTTATATGGAGGT [CACACA_site3461]” to “TTTCTTTTTTTTTTTATTTACCTGAATTATGTATTA [TGCATGCA_negctrl_site345]”, the “gcPBM binding intensity (ln)” value falls from 9.67 to 9.61.

Compared with “AGTTTATTTATATACACACACATATAAATATTATAG [CACACA_site6522]”, “ATATATATTTATGTATCACACACAAAAAAAAAAAAT [CACACA_site7973]” is higher in “gcPBM binding intensity (ln)” value: 10 for the first, 10.3 for the second.

First: TATATATATATATATTGTACTTATGTTTATATTCAT [XGTACX_site6258]
Second: TTCTTTAAAATATTATGTACACATTGCGAACAGTTT [XGTACX_site5418]
The “gcPBM binding intensity (ln)” value of the first is lower: 9.68 for the first, 9.76 for the second.

Compared with “AATAAATAAATATATATATATATATAATATCATAAA [CACACA_negctrl_site337]”, “TTTTTTATTAGTATCTGTACACATTGGTATTTGTAT [XGTACX_site6682]” is higher in “gcPBM binding intensity (ln)” value: 9.78 for the first, 9.92 for the second.

Compared with “TTCTTAAAATATGAAAGTACATAGGCATTATATATT [XGTACX_site8400]”, “ATAAACTGAGTGGTTACACACAAAACCAATAACTTT [CACACA_site7601]” is higher in “gcPBM binding intensity (ln)” value: 9.45 for the first, 9.9 for the second.

Going from “ATATAGACACACACATGTACATATGCCAACGTGATA [XGTACX_site3828]” to “ACTATATAATATAATATATTATAATATATTATATTA [GTGCAC_negctrl_site140]”, the “gcPBM binding intensity (ln)” value falls from 10.1 to 9.51.

Compared with “TATGTATATATTTGTGCACACCAAAGTTTGATTTTA [CACACA_site1861]”, “TTATAATAAACCTATACACACATAAATAAATAAATA [CACACA_site2581]” is lower in “gcPBM binding intensity (ln)” value: 9.98 for the first, 9.88 for the second.

Compared with “AATAATATTTATTTTTGTACATATGTGCATTATAAA [XGTACX_site3682]”, “ATTAATTTTATATATGCACACAAAATATGTTCATAT [CACACA_site9350]” is higher in “gcPBM binding intensity (ln)” value: 9.65 for the first, 9.94 for the second.

Going from “ATGATCATAAAACACACACACAAAAAAAAAAAAAAA [CACACA_site1805]” to “CCATGCATACATTCTTGTACACATTTCTATTATGAG [XGTACX_site39]”, the “gcPBM binding intensity (ln)” value falls from 10.1 to 9.74.

Compared with “GAATTCAACAAAAAAAGTACTCTACATAAAATAATG [XGTACX_site175]”, “ATATTGATGTATTGTTTTTTTTTTTTCTTTTTTTTT [CACACA_negctrl_site1238]” is higher in “gcPBM binding intensity (ln)” value: 9.5 for the first, 9.64 for the second.

Going from “GAACGAAACTTTCTTACACACATTGAAATTTTTTTC [CACACA_site1779]” to “TTATAAAAGGACTTCTGTACGAATTTTTTTTAATAA [XGTACX_site1411]”, the “gcPBM binding intensity (ln)” value falls from 10 to 9.24.

First: TACTCACAATGGGGTCTACAAAAAAAAAAAAATAAA [XGTACX_negctrl_site229]
Second: TCAAGAATTATATAAACACACATACATACACCCATA [CACACA_site5126]
The “gcPBM binding intensity (ln)” value of the first is lower: 9.26 for the first, 10.8 for the second.

Compared with “TTTTATTTCATTTGTTGTACTTTCAAAATATTATTA [XGTACX_site2192]”, “AAGAATAAAGAATGGTGTACATGCATATAAAATATT [XGTACX_site5707]” is higher in “gcPBM binding intensity (ln)” value: 9.66 for the first, 9.85 for the second.

Going from “ATGTTATATATGTATTGTACGTATTTTGTATATTAT [XGTACX_site6607]” to AGTGTTTTTTATAAAGTGCAATATAAAAACAAAATG, the “gcPBM binding intensity (ln)” value falls from 9.91 to 9.74.

First: AATTTTTTTTTATTGTGTACTTATTTTTTTATATTT [XGTACX_site917]
Second: AATATATTTCATTTTTGTACACACAACGTTGGAGGG [XGTACX_site6461]
The “gcPBM binding intensity (ln)” value of the first is higher: 9.92 for the first, 9.75 for the second.

Compared with “CAACATATGCATATGTGTACATATTTTATTTTCAAC [XGTACX_site2237]”, “ACATACATATGTAAATGTACAAAATATCCATAGATT [XGTACX_site2782]” is higher in “gcPBM binding intensity (ln)” value: 9.69 for the first, 9.89 for the second.

Going from “ATATACTCATTAATAACACACAATATGATAACAAAT [CACACA_site5913]” to “TATATATTATCAAGTGGACACACGAAAAAAAGGAAA [CACACA_site3741]”, the “gcPBM binding intensity (ln)” value falls from 10.1 to 9.85.

First: TTTTTCATATTATACTTTTATATACATATATAAAAA [XGTACX_negctrl_site281]
Second: TAAAGATTGTTCAGTGCATGTTGGCCTGTAAATGGA [TGCATGCA_site315]
The “gcPBM binding intensity (ln)” value of the first is lower: 9.47 for the first, 9.63 for the second.

First: ATAATGTAGAACTAGAGTACATAAAAAAATAAACAT [XGTACX_site5205]
Second: TTTTTTTTTTTTTTTTTTTGTCTTATATATTACGGA [CACACA_negctrl_site322]
The “gcPBM binding intensity (ln)” value of the first is higher: 10.1 for the first, 8.7 for the second.

Going from “GCTACACAATTTTTTAGTACACACATATAAATATAT [XGTACX_site3131]” to “TAAGATATATTTTTTTGTACACATAATAAAATAATA [XGTACX_site8938]”, the “gcPBM binding intensity (ln)” value falls from 9.95 to 9.12.

Compared with “AAAAGAAACTTATTTACGCACACTTTATTGCATGTT [CACACA_site3887]”, “GATAAATCATATATAACACACATATGAATATTACAA [CACACA_site1321]” is higher in “gcPBM binding intensity (ln)” value: 9.84 for the first, 9.86 for the second.

Going from “GTAATTTTGAGATGATGTACATATTTTTTCCTTGTC [XGTACX_site4103]” to “GGACAAGTTTTTTACATAAATAAAAAAAATAAAAAA [XGTACX_negctrl_site125]”, the “gcPBM binding intensity (ln)” value rises from 9.61 to 9.67.

“ATATATATATAATAAACACACAAATAGATATAACAT [CACACA_site3715]” and “TTAAAGCTGACATATACACACATACATAAATTCATA [CACACA_site5377]” are the same in “gcPBM binding intensity (ln)” value: 10.1 for the first, 10.1 for the second.

First: TATACATATATTATATGTACATATATATATAATATA [XGTACX_site2942]
Second: ATACTTATGATAAATACACACTTGAAATTAAGGATT [CACACA_site4772]
The “gcPBM binding intensity (ln)” value of the first is lower: 9.5 for the first, 9.62 for the second.

First: CGAACAAACAAATAAACACACAAAAAAAAATATATA [CACACA_site1825]
Second: TTTTTTAAAAGATATATAATATGTATGAATATTCAA [XGTACX_negctrl_site380]
The “gcPBM binding intensity (ln)” value of the first is higher: 9.84 for the first, 9.4 for the second.
